Test results reported in PubChem BioAssay AID686978 (National Center for Advancing Translational Sciences (NCATS), 2013).
Several values for one entry are separate records, joined by “and”; a condition that tells them apart may be missing. Equal values may be shown once. Among all 420,000 compounds or so, about 64,000 (15%) were called active. This list was built around the results that the source calls inconclusive (neither active nor inactive); the mix of calls is not that of the screen. The call rests on the fitted dose curve; in most records, active means well fitted inhibition curve with a large enough effect; inconclusive means small, poorly fitted or top-dose-only effect; inactive means flat fitted curve, though single readings scatter. A potency beside an inconclusive call is a rough fit, not a confirmed value. Where a structure was tested more than once in an assay, its records may differ in their call.

Assay: qHTS for Inhibitors of human tyrosyl-DNA phosphodiesterase 1 (TDP1): qHTS in cells in absence of CPT; further: nearly all actives have a fitted effect of over 55% in size
Conditions: DT40 Tdp1-/- hTDP1 cells, no CPT, ATP luminescence, 48 h; activity change, negative = growth inhibition: at 46.2 µM (top of the series) unless noted
Procedure, shortened: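 DT40 Tdp1-/-;hTDP1 cells, no CPT (DMSO vehicle only), 400 cells/well; compounds pin-transferred; ≥48 hr, 37 °C; CellTiter-Glo 30 min RT dark, luminescence read.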
On the % scale 0 is the no-effect control and ±100 the full control effect; potency means the concentration at half of the fitted maximal effect; tags describe the fitted curve by direction and shape.

SMILES | Potency | activity change, negative = growth inhibition
CC1CCC(C(C)C)C(OC(=O)c2ccccc2N)C1 (stereo not drawn) | inconclusive: 29.9 µM [inhibitor, single point] | –
C[C@]12CCC3C(CC[C@H]4C[C@@H](O)CC[C@]34C)C1C[C@@H](O)[C@H]2O (stereo partly drawn) | inconclusive: 18.4 µM [inhibitor, single point] | –
C=CCn1c(O)c(C(C)=Nc2ccc3c(c2)CCC3)c(=O)[nH]c1=O | inconclusive: 29.1 µM [inhibitor, single point] | –
Cc1sc2ncnc(SCC(=O)Nc3ccc(S(=O)(=O)N4CCOCC4)cc3)c2c1C | active: 29.1 µM | –
CCOC(=O)C1CCN(Cc2ccc(Cl)nc2)CC1 | inactive | –
Fc1ccc(Cn2nnnc2C(c2ccc(Cl)cc2)N2CC=C(c3ccc(F)cc3)CC2)cc1 (stereo not drawn) | inconclusive: 25.9 µM [inhibitor, single point] | –
CC(C)(C)C(O)C(Oc1ccc(Cl)cc1)n1cncn1 (stereo not drawn) | inconclusive: 68.6 µM [inhibitor, single point] | inconclusive: -35.3% [inhibitor]
CC(C)c1ccc(NC(=O)CN2C(=O)CN=C(c3ccccc3)c3ccccc32)cc1 | inconclusive: 20.6 µM [inhibitor, single point] | –
COc1cc2c(cc1OC)C(C(=O)N1CCC3(CC1)OCCO3)C(c1ccccc1F)N(C)C2=O (stereo not drawn) | inactive | –
O=C(NCC1=C(c2ccc3ccccc3c2)C[C@@H]2CC[C@H]1N2Cc1ccco1)c1nccs1 | active: 16.4 µM | –
COc1ccc(N2CC2c2ccncc2)cc1 (stereo not drawn) | inconclusive: 25.9 µM [inhibitor, single point] | –
C[C@]12CC[C@H]3[C@@H](CCC4=CC(=O)CC[C@@]43C)[C@@H]1CC[C@@H]2O | inactive | –
CC12CCC(=O)C=C1C=CC1C2CCC2(C)C(O)CCC12 (stereo not drawn) | inactive | –
CCN(C[C@H]1N[C@@](C)(C(=O)OC)[C@H]2C(=O)N(Cc3ccccc3)C(=O)[C@@H]12)S(=O)(=O)c1ccc(C(C)(C)C)cc1 | active: 23.1 µM | –
c1ccc2c(c1)Nc1ccccc1S2 | inactive and active: 5.31 µM and active: 34.4 µM | –
O=C1Nc2ccccc2/C1=C/c1nc2ccccc2c(=O)n1-c1ccc(O)cc1 | inconclusive: 29.1 µM [inhibitor, single point] | –
O=C(CN1CCN(C(=O)COc2cccc(F)c2)CC1)Nc1ccc(Cl)c(C(F)(F)F)c1 | active: 5.17 µM | –
COc1ccc(N=C(C)c2c(O)n(C)c(=O)n(C)c2=O)c(OC)c1 | inconclusive: 18.4 µM [inhibitor, partial curve] | –
CC(=O)OCC(=O)C1CCC2C3CC=C4CC(O)CCC4(C)C3CCC12C (stereo not drawn) | inconclusive: 18.4 µM [inhibitor, single point] | –
COC(=O)C1=C(c2ccc(F)cc2OCc2ccccc2)C[C@@H]2CC[C@H]1N2C(=O)N1CCCC1 | active: 5.8 µM | –
CCCCCc1nc2ccccc2c(=O)n1-c1ccccc1[N+](=O)[O-] | active: 16.4 µM | –
COc1cc2c(cc1O)C[C@H]1c3c(cc(OC)c(O)c3-2)CCN1C | inconclusive: 29.9 µM [inhibitor, single point] | –
COc1ccc(CCNC(=O)CCc2c(C)nc3c(-c4ccc(F)cc4)c(C)nn3c2C)cc1OC | active: 11.6 µM | –

SMILES | Potency | activity change, negative = growth inhibition
COc1ccc(OC(=O)N(C)C[C@@H]2OCc3cnnn3CCCC(=O)N([C@@H](C)CO)C[C@H]2C)cc1 | inactive | –
O=C(CCN1CC2CCC(CC2)C1)c1cccs1 | active: 4.11 µM | –
C1=C(c2c[nH]c3ccccc23)CCN(Cc2ccccc2)C1 | active: 4.61 µM | –
Clc1ccc(NC2=NCCCS2)cc1Cl | inconclusive: 23.1 µM [inhibitor, single point] | –
COc1ccc([C@H]2C[C@@H](O)[C@H](n3cc(COC(=O)c4ccccc4)nn3)CN2Cc2cccs2)cc1 | inactive | –
CC(C)CCNC(=O)c1c(N)n(Cc2ccc3c(c2)OCO3)c2nc3ccccc3nc12 | inconclusive: 35.5 µM [inhibitor, single point] | –
CN(C)CCc1c[nH]c2cccc(O)c12 | inconclusive: 27 µM [inhibitor, partial curve, poor fit] | –
CCOC(=O)C1(c2ccccc2)CCN(CCC(=O)Nc2cccc(Br)c2)CC1 | inconclusive: 29.1 µM [inhibitor, single point] | –
O=C(NN=Cc1ccc(N(CCCl)CCCl)cc1)c1cc(=O)[nH]c(=O)[nH]1 | inconclusive: 23.1 µM [inhibitor, single point] | –
O=C1CN=C(c2cccs2)c2c(sc3c2CCCC3)N1 | inconclusive: 29.1 µM [inhibitor, single point] | –
CCc1ccc(-c2nc(CSCC(=O)N3CCN(c4ccc(F)cc4)CC3)c(C)o2)cc1 | inconclusive: 18.4 µM [inhibitor, single point] | –
CN1C(=O)N(C)C(=O)C2(Cc3c(nc4ccccn4c3=O)N3CCc4ccccc4C32)C1=O (stereo not drawn) | inconclusive: 29.1 µM [inhibitor, single point] | –
CCOc1ccc(C2SCC(=O)Nc3c2c(C)nn3C2CCOC(C)(C)C2)cc1 (stereo not drawn) | inconclusive: 9.2 µM [inhibitor, partial curve] | –
CC(C)=CCCC1(C)C=Cc2c(O)c3c(c(CC=C(C)C)c2O1)OC12C(=CC4CC1C(C)(C)OC2(C/C=C(/C)C(=O)O)C4=O)C3=O (stereo not drawn) | active: 1.03 µM | –
O=C(Oc1c(Cl)cc(Cl)c2ccccc12)N1CCCCC1 | inconclusive: 20.6 µM [inhibitor, single point] | –
O=C(Cn1ncc2c3ccccc3n(Cc3ccccc3F)c2c1=O)N1CCC2(CC1)OCCO2 | active: 11.6 µM | –
c1ccc2c(CN3CCCCC3)c[nH]c2c1 | inconclusive: 23.1 µM [inhibitor, partial curve, poor fit] | –
c1ccc(CNC2CN3CCC2CC3)cc1 (stereo not drawn) | inactive | –
CC(C)C[C@@H]1COc2cc(N3CCN(C)CC3)ccc2S(=O)(=O)N1 | inactive | –
CC(C)NC(C)Cc1ccc(I)cc1 (stereo not drawn) | inconclusive: 33.5 µM [inhibitor, single point] and inconclusive: 13 µM [inhibitor, partial curve] | –
CCOC(=O)[C@]12Cc3ccccc3[C@H]1N(CCC(=O)OC)C(=O)c1cc(OC)ccc12 | inconclusive: 20.6 µM [inhibitor, single point] | –
OCCN1CCN(CC/C=C2/c3ccccc3Sc3ccc(Cl)cc32)CC1 | active: 10.1 µM and active: 23.1 µM | –
Cc1cccc(Cn2c(=O)n(CC3CCC(C(=O)N4CCC(C)CC4)CC3)c(=O)c3sccc32)c1 (stereo not drawn) | active: 16.4 µM | –

SMILES | Potency | activity change, negative = growth inhibition
CN(C)C(=O)Oc1c(Cl)cc(Cl)c2cccnc12 | inactive | –
CCOP(=O)(OCC)/C(C#N)=C/c1ccc(Br)cc1 | inactive | –
COc1ccc(-c2nc(CN3C(=O)CN=C(c4ccccc4Cl)c4cc(Cl)ccc43)c(C)o2)cc1OC | inconclusive: 25.9 µM [inhibitor, single point] | –
COC(=O)C1=C(c2ccc(C(C)=O)cc2)C[C@@H]2CC[C@H]1N2C(=O)NCc1ccc2c(c1)OCO2 | inconclusive: 29.1 µM [inhibitor, single point] | –
CNc1ccc2oc(C[C@H]3O[C@]4(CC[C@H]3C)O[C@H]([C@H](C)C(=O)c3ccc[nH]3)[C@H](C)C[C@H]4C)nc2c1C(=O)O | active: 1.06 µM | –
COC(=O)N1CCN(C(=O)Cc2ccc(Cl)c(Cl)c2)C(CN2CCCC2)C1 (stereo not drawn) | inconclusive: 25.9 µM [inhibitor, single point] | –
O=C(Oc1ccc(Br)cc1C(=S)N1CCCC1)c1ccccc1Cl | inconclusive: 20.6 µM [inhibitor, single point] | –
Cc1cccc(OCC(=O)N2CCN(Cc3ccc([N+](=O)[O-])cc3)CC2)c1 | inconclusive: 23.1 µM [inhibitor, single point] | –
CCc1ccc(NC(=O)c2cnc3sc(N4CCCC4)nn3c2=O)cc1 | inconclusive: 5.8 µM [inhibitor, full curve] | –
CN(C)P1(=O)N(C)CCN1C | inactive | –
O=C1c2ccccc2-c2cccc3cccc1c23 | inactive and active: 18.4 µM | –
C=CC12CN(C)[C@@H]3C4CO[C@H](C[C@H]41)[C@]1(C(=O)Nc4ccccc41)[C@@H]32 (stereo partly drawn) | inactive | –
COC(=O)C1=Nc2ccccc2/C1=C\c1c(O)n(-c2ccc(Br)cc2)c(=O)[nH]c1=O | inconclusive: 23.1 µM [inhibitor, single point] | –
O=c1[nH]c(=S)n(C2CCCCC2)c(O)c1/C=N/N1CCOCC1 | inconclusive: 25.9 µM [inhibitor, single point] | –
O=C(c1ccc2c(c1)N(Cc1ccc(F)cc1)CCS2)N1CCC2(CC1)OCCO2 | inconclusive: 20.6 µM [inhibitor, single point] | –
CCCc1nnc(NC(=O)CCC(=O)N2CCN(Cc3ccc(OC)c(F)c3)CC2)s1 | inconclusive: 23.1 µM [inhibitor, partial curve, poor fit] | –
N=C1c2ccccc2CN1NC(=O)c1ccc(Br)cc1 | inactive | –
Cc1cccc(-n2c(/C=C/c3ccccn3)nc3ccccc3c2=O)c1 | inconclusive: 29.1 µM [inhibitor, single point] | –
O=C(c1cccs1)N1C2CCC1CC(O)(c1cccnc1)C2 (stereo not drawn) | inactive | –
O[C@H]1C[C@H](c2ccccc2)N(CC2CCCCC2)C[C@@H]1n1cc(-c2ccc(F)cc2)nn1 | active: 14.6 µM | –
O=C(CNC(=O)OCc1ccccc1)Nc1ccc(Br)cc1C(=O)c1ccccc1 | inconclusive: 25.9 µM [inhibitor, single point] | –
